Data: the supplement of paper PMC8728848
This is one part of the list.

Key:
Assay in all cases: glycan array binding signal (z-score within array); higher = stronger binding
Settings in all cases: glycan notation: IUPAC condensed, linker removed
[1] = biological target: Neu5Ac(a2-3)Gal(b1-3)GlcNAc(b1-3)Gal(b1-4)GlcNAc
Procedure, shortened: (§1)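 Arrays were curated from the Consortium for Functional Glycomics database, 3228 in total, and kept only where the protein sequence was available. Binding is expressed as a within-array Z-score. This score was averaged across arrays of the same protein sequence at different concentrations or buffers and across linkers, and negative values can be read as non-binding.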

[2] = biological target: Neu5Ac(a2-3)Gal(b1-3)GlcNAc(b1-3)GalNAc
Procedure, shortened: as §1

[3] = biological target: Neu5Ac(a2-3)Gal(b1-3)GlcNAc6S
Procedure, shortened: as §1

[4] = biological target: Neu5Ac(a2-3)Gal(b1-3)[Fuc(a1-4)]GlcNAc
Procedure, shortened: as §1

[5] = biological target: Neu5Ac(a2-3)Gal(b1-3)[Fuc(a1-4)]GlcNAc(b1-3)Gal(b1-3)[Fuc(a1-4)]GlcNAc
Procedure, shortened: as §1

[6] = biological target: Neu5Ac(a2-3)Gal(b1-3)[Fuc(a1-4)]GlcNAc(b1-3)Gal(b1-4)[Fuc(a1-3)]GlcNAc
Procedure, shortened: as §1

[7] = biological target: Neu5Ac(a2-3)Gal(b1-3)[Neu5Ac(a2-3)Gal(b1-4)]GlcNAc
Procedure, shortened: as §1

[8] = biological target: Neu5Ac(a2-3)Gal(b1-3)[Neu5Ac(a2-6)]GalNAc
Procedure, shortened: as §1

[9] = biological target: Neu5Ac(a2-3)Gal(b1-4)Glc
Procedure, shortened: as §1

[10] = biological target: Neu5Ac(a2-3)Gal(b1-4)GlcNAc
Procedure, shortened: as §1

[11] = biological target: Neu5Ac(a2-3)Gal(b1-4)GlcNAc(b1-2)Man(a1-3)[GlcNAc(b1-2)Man(b1-4)GlcNAc(b1-2)Man(a1-6)]Man(b1-4)GlcNAc(b1-4)GlcNAc
Procedure, shortened: as §1

[12] = biological target: Neu5Ac(a2-3)Gal(b1-4)GlcNAc(b1-2)Man(a1-3)[Neu5Ac(a2-3)Gal(b1-4)GlcNAc(b1-2)Man(a1-6)]Man(b1-4)GlcNAc(b1-4)GlcNAc
Procedure, shortened: as §1

[13] = biological target: Neu5Ac(a2-3)Gal(b1-4)GlcNAc(b1-2)Man(a1-3)[Neu5Ac(a2-6)Gal(b1-4)GlcNAc(b1-2)Man(a1-6)]Man(b1-4)GlcNAc(b1-4)GlcNAc
Procedure, shortened: as §1

[14] = biological target: Neu5Ac(a2-3)Gal(b1-4)GlcNAc(b1-3)Gal
Procedure, shortened: as §1

[15] = biological target: Neu5Ac(a2-3)Gal(b1-4)GlcNAc(b1-3)Gal(b1-3)GlcNAc
Procedure, shortened: as §1

[16] = biological target: Neu5Ac(a2-3)Gal(b1-4)GlcNAc(b1-3)Gal(b1-4)GlcNAc
Procedure, shortened: as §1

[17] = biological target: Neu5Ac(a2-3)Gal(b1-4)GlcNAc(b1-3)Gal(b1-4)GlcNAc(b1-3)Gal(b1-4)GlcNAc
Procedure, shortened: as §1

[18] = biological target: Neu5Ac(a2-3)Gal(b1-4)GlcNAc(b1-3)Gal(b1-4)[Fuc(a1-3)]GlcNAc
Procedure, shortened: as §1

[19] = biological target: Neu5Ac(a2-3)Gal(b1-4)GlcNAc(b1-3)GalNAc
Procedure, shortened: as §1

[20] = biological target: Neu5Ac(a2-3)Gal(b1-4)GlcNAc(b1-6)[Gal(b1-3)]GalNAc
Procedure, shortened: as §1

[21] = biological target: Neu5Ac(a2-3)Gal(b1-4)GlcNAc(b1-6)[Neu5Ac(a2-3)Gal(b1-3)]GalNAc
Procedure, shortened: as §1

[22] = biological target: Neu5Ac(a2-3)Gal(b1-4)GlcNAc6S
Procedure, shortened: as §1

[23] = biological target: Neu5Ac(a2-3)Gal(b1-4)[Fuc(a1-3)]GlcNAc
Procedure, shortened: as §1

[24] = biological target: Neu5Ac(a2-3)Gal(b1-4)[Fuc(a1-3)]GlcNAc(b1-3)Gal
Procedure, shortened: as §1

[25] = biological target: Neu5Ac(a2-3)Gal(b1-4)[Fuc(a1-3)]GlcNAc(b1-3)Gal(b1-4)GlcNAc
Procedure, shortened: as §1

[26] = biological target: Neu5Ac(a2-3)Gal(b1-4)[Fuc(a1-3)]GlcNAc(b1-3)Gal(b1-4)[Fuc(a1-3)]GlcNAc(b1-3)Gal(b1-4)[Fuc(a1-3)]GlcNAc
Procedure, shortened: as §1

[27] = biological target: Neu5Ac(a2-3)Gal(b1-4)[Fuc(a1-3)]GlcNAc(b1-3)GalNAc
Procedure, shortened: as §1

[28] = biological target: Neu5Ac(a2-3)Gal(b1-4)[Fuc(a1-3)]GlcNAc(b1-6)[Gal(b1-3)]GalNAc
Procedure, shortened: as §1

[29] = biological target: Neu5Ac(a2-3)Gal(b1-4)[Fuc(a1-3)]GlcNAc6S
Procedure, shortened: as §1

[30] = biological target: Neu5Ac(a2-3)Gal6S(b1-4)GlcNAc
Procedure, shortened: as §1

[31] = biological target: Neu5Ac(a2-3)Gal6S(b1-4)[Fuc(a1-3)]GlcNAc
Procedure, shortened: as §1

[32] = biological target: Neu5Ac(a2-3)GalNAc
Procedure, shortened: as §1

[33] = biological target: Neu5Ac(a2-3)GalNAc(b1-4)GlcNAc
Procedure, shortened: as §1

[34] = biological target: Neu5Ac(a2-3)[GalNAc(b1-4)]Gal(b1-4)Glc
Procedure, shortened: as §1

[35] = biological target: Neu5Ac(a2-3)[GalNAc(b1-4)]Gal(b1-4)GlcNAc
Procedure, shortened: as §1

[36] = biological target: Neu5Ac(a2-3)[GalNAc(b1-4)]Gal(b1-4)GlcNAc(b1-3)GalNAc
Procedure, shortened: as §1

[37] = biological target: Neu5Ac(a2-3)[Neu5Ac(a2-6)]GalNAc
Procedure, shortened: as §1

[38] = biological target: Neu5Ac(a2-6)Gal
Procedure, shortened: as §1

B1: F17aG (Escherichia coli), Q99003 (protein)
chain: MTNFYKVFLAVFILVCCNISQAAVSFIGSTENDVGPSLGSYSRTHAMDNLPFVYDTRNKIGYQNANVWHISKGFCVGLDGKVDLPVVGSLDGQSIYGLTEEVGLLIWMGDTKYSRGTAMSGNSWENVFSGWCVGANTASTQGLSVRVTPVILKRNSSARYSVQKTSIGSIRMRPYNGSSAGSVQTTVNFSLNPFTLNDTVTSCRLLTPSAVNVSLAAISAGQLPSSGDEVVAGTTSLKLQCDAGVTVWATLTDATTPSNRSDILTLTGASTATGVGLRIYKNTDSTPLKFGPDSPVKGNENQWQLSTGTETSPSVRLYVKYVNTGEGINPGTVNGISTFTFSYQ
For B1, the “glycan array binding signal (z-score)” value [1] was -0.181, the “glycan array binding signal (z-score)” value [2] was -0.157 and the “glycan array binding signal (z-score)” value [3] was -0.227. The “glycan array binding signal (z-score)” value [4] was -0.226, the “glycan array binding signal (z-score)” value [5] was -0.173 and the “glycan array binding signal (z-score)” value [6] was -0.056. The “glycan array binding signal (z-score)” value [7] was 0.26, the “glycan array binding signal (z-score)” value [8] was -0.081 and the “glycan array binding signal (z-score)” value [9] was -0.166. For the same binder, the “glycan array binding signal (z-score)” value [10] was -0.248, the “glycan array binding signal (z-score)” value [11] was -0.181 and the “glycan array binding signal (z-score)” value [12] was -0.333. For the same binder, the “glycan array binding signal (z-score)” value [13] was -0.178, the “glycan array binding signal (z-score)” value [14] was -0.158 and the “glycan array binding signal (z-score)” value [15] was -0.156. The “glycan array binding signal (z-score)” value [16] was -0.075, the “glycan array binding signal (z-score)” value [17] was -0.243 and the “glycan array binding signal (z-score)” value [18] was -0.241. For the same binder, the “glycan array binding signal (z-score)” value [19] was -0.173, the “glycan array binding signal (z-score)” value [20] was 0.122 and the “glycan array binding signal (z-score)” value [21] was -0.082. The “glycan array binding signal (z-score)” value [22] was -0.192, the “glycan array binding signal (z-score)” value [23] was -0.248 and the “glycan array binding signal (z-score)” value [24] was -0.247. For the same binder, the “glycan array binding signal (z-score)” value [25] was -0.214, the “glycan array binding signal (z-score)” value [26] was -0.234 and the “glycan array binding signal (z-score)” value [27] was -0.119. The “glycan array binding signal (z-score)” value [28] was -0.144, the “glycan array binding signal (z-score)” value [29] was 0.084 and the “glycan array binding signal (z-score)” value [30] was -0.233. For the same binder, the “glycan array binding signal (z-score)” value [31] was -0.245, the “glycan array binding signal (z-score)” value [32] was -0.032 and the “glycan array binding signal (z-score)” value [33] was -0.228. For the same binder, the “glycan array binding signal (z-score)” value [34] was 0.025, the “glycan array binding signal (z-score)” value [35] was -0.241 and the “glycan array binding signal (z-score)” value [36] was -0.203. For the same binder, the “glycan array binding signal (z-score)” value [37] was 0.01 and the “glycan array binding signal (z-score)” value [38] was -0.237.
